About 18,000 (5.8%) of roughly 310,000 compounds were called active. Inconclusive results, whose numbers are uncertain, are shown with a selection of clear calls. The call rests on the fitted dose curve; in most records, active means well fitted inhibition curve with a large enough effect; inconclusive means small, poorly fitted or top-dose-only effect, or another doubt; inactive means no such curve, though single readings can be large or run the other way. Potencies of inconclusive entries are left out as doubtful fits.
experiment: Primary qHTS for delayed death inhibitors of the malarial parasite plastid, 48 hour incubation; details: P. falciparum luciferase growth in erythrocytes; series mostly up to 28.7 µM
In short: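 Here the parasites carry a stable luciferase gene and grow inside erythrocytes in Albumax-based RPMI medium with compound for one erythrocytic cycle. Activity is scored as loss of luminescent signal.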
Potency means the concentration at half of the fitted maximal effect; tags describe the fitted curve by direction and shape.

| SMILES | Potency |
| --- | --- |
| O=[N+]([O-])c1ccc(N2CCCCC2)c(Cl)c1N1CCCCC1 | inconclusive [inhibitor, partial curve, poor fit] |
| Cc1c(C(=O)NCC2COc3ccccc3O2)oc2ccc(S(=O)(=O)N(C)C3CCCCC3)cc12 (configuration not stated) | active: 9.28 µM |
| CC(OC(=O)Cn1cnc2ccccc2c1=O)C(=O)NCc1ccccc1 (configuration not stated) | inconclusive [inhibitor, partial curve, poor fit] |
| Cc1ccc(C(=O)NCC(=O)OCCOc2ccccc2Cl)cc1 | inactive |
| CC(=O)c1cccc(NC(=S)NC(=O)c2ccc(Br)cc2)c1 | inactive |
| CC(C)c1ccc(/C=C2\NC(=S)N(Cc3cccnc3)C2=O)cc1 | inconclusive [inhibitor, single point] |
| CC(C)NC(=O)c1ccc(OC2CSC2)cc1 | inactive |
| CC(C)(C)C1CCc2[nH]nc(C(=O)O)c2C1 (configuration not stated) | inconclusive [inhibitor, single point] |
| CCOc1ccc(CNc2cccc(SC)c2)cc1 | inconclusive [inhibitor, partial curve] |
| Cc1ccc(-c2nn(-c3ccccc3)cc2/C=N/NC(=O)c2ccc3c(c2)OCO3)cc1 | inconclusive [inhibitor, partial curve, poor fit] |
| Cc1ccc2c(Cl)cc(Cl)c(OCC(=O)Nc3cc(S(=O)(=O)N(C)C)ccc3C)c2n1 | inconclusive [inhibitor, single point] |
| Cc1ccc(C(=O)C(OC(=O)CN2C(=O)c3ccccc3C2=O)c2ccccc2)cc1 (configuration not stated) | inconclusive [inhibitor, single point] |
| N#C/C(=C\c1ccccc1)C(=O)N(c1ccccn1)C1CCCCC1 | inactive |
| O=Nc1ccc(O)c2ncccc12 | active: 1.47 µM |
| COc1ccc([C@]23Cc4cc(OC)c(OC)cc4C(O2)c2c(cc(C)oc2=O)O3)cc1 | inconclusive [inhibitor, single point] |
| CCOc1ccc(-n2cc(-c3ccccc3)c3c(=O)[nH]cnc32)cc1 | inconclusive [inhibitor, single point] |
| CC1CCCCN1C(=O)/C(=C\c1ccccc1)c1ccccc1 (configuration not stated) | inconclusive [inhibitor, single point] |
| COc1cccc(C(=O)Nc2ccc3c(c2)C(=O)NC3=O)c1 | inactive |
| O=S(=O)(c1ccc(OCC(O)CN2CCN(c3ccccc3O)CC2)cc1)N1CCOCC1 (configuration not stated) | inconclusive [inhibitor, single point] |
| CCC1Oc2ccc(C)cc2N(CC(=O)NCCC2=CCCCC2)C1=O (configuration not stated) | inconclusive [inhibitor, single point] |
| C(#Cc1ccc2c(c1)COc1c3ccccc3nn1-2)c1ccccc1 | inconclusive [inhibitor, single point] |

| SMILES | Potency |
| --- | --- |
| CCCCSCCCNC(=O)c1cn(CC)c2ccc(S(=O)(=O)N3CCOCC3)cc2c1=O | inconclusive [inhibitor, partial curve] |
| CC(SC1=NCCN1S(=O)(=O)c1ccc(F)cc1)c1ccccc1 (configuration not stated) | inconclusive [inhibitor, single point] |
| Cc1ccc(S(=O)(=O)N(Cc2ccc(Cl)cc2)c2ccccc2C(=O)NCc2cccnc2)cc1 | active: 13.1 µM |
| CN=c1sc2ccccc2n1CC(O)c1ccccc1 (configuration not stated) | inconclusive [inhibitor, partial curve] |
| COc1cccc(/C(C)=N/Nc2ccc(S(=O)(=O)N3CCCCC3)cn2)c1 | inconclusive [inhibitor, single point] |
| c1ccc2c(CN3CCN(C4CCCCC4)CC3)c[nH]c2c1 | active: 6.57 µM |
| O=C(Nc1nc(-c2ccc(Cl)cc2Cl)cs1)C1CCCO1 (configuration not stated) | inactive |
| CC(=O)Nc1cccc(Oc2cc(C#N)c(C#N)cc2N2CCCCCC2)c1 | inconclusive [inhibitor, single point] |
| CCOc1cc2[nH]c(=S)n(Cc3ccc(C(=O)N4CCN(C)CC4)cc3)c(=O)c2cc1OCC | inconclusive [inhibitor, partial curve] |
| Cc1cc(C)c2c(=O)n(CC(=O)Nc3ccc(Cl)cc3)sc2n1 | inactive |
| Cc1cc(Cl)ccc1NC(=S)NCCc1ccc(Cl)cc1 | inconclusive [inhibitor, single point] |
| CCC(C)C(=O)Nc1nc(C)c(-c2csc(Nc3ccccc3OC)n2)s1 (configuration not stated) | active: 9.28 µM |
| O=C(NCc1ccccc1)C(=O)NCC1CCCN1S(=O)(=O)c1cccs1 (configuration not stated) | inconclusive [inhibitor, partial curve] |
| Cc1ccc(C)c(N2CCN(c3nnnn3-c3ccccc3)CC2)c1 | inconclusive [inhibitor, full curve] |
| CC(C)(C)OC(=O)CC[C@@H](C(=O)N1CCN(C(=O)OC(C)(C)C)CC1)n1cc(C(Cc2ccc(O)cc2)NC(=O)OC(C)(C)C)nn1 (some centres not stated) | inconclusive [inhibitor, full curve, poor fit] |
| CCC(C)c1ccccc1N1CC(C(=O)N2CCN(S(=O)(=O)c3cccc([N+](=O)[O-])c3)CC2)CC1=O (configuration not stated) | inconclusive [inhibitor, partial curve, poor fit] |
| COc1ccc([C@@H]2CC=C(C(=O)O)[C@H](c3ccc(F)cc3)N2S(=O)(=O)c2ccc(C)cc2)cc1OC | inconclusive [inhibitor, partial curve, poor fit] |
| COc1ccccc1NC(=O)C(=O)NCCC1CCCCN1S(=O)(=O)c1ccccc1 (configuration not stated) | inconclusive [inhibitor, single point] |
| CCOC(=O)c1c(NC(=O)CN2CCN(C(=O)c3ccco3)CC2)sc2c1CCCC2 | active: 3.7 µM |
| CCC(C)(C)NC(=O)CN(C(=O)c1csnn1)c1ccccc1-c1ccccc1 | inconclusive [inhibitor, partial curve, poor fit] |
| O=C(Nc1ccc(F)cc1)c1oc2ccccc2c1NC(=O)C1CC1 | inconclusive [inhibitor, single point] |

Source: PubChem BioAssay AID504832 (National Center for Advancing Translational Sciences (NCATS), 2011)
